Columns and labels:
KLHDC2 R56A mutant [1] = target: T1, KLHDC2 R56A mutant (UniProt Q9Y2U9 15-361, R56A); experiment: ITC; ternary, with SJ46421
KLHDC2 R56A mutant [2] = target: T1, KLHDC2 R56A mutant; experiment: ITC; ternary complex with PROTAC SJ46421

B1: BRD4^BD2 G-to-E swap mutant (G386E) (domain or fragment)
chain: not shown
KLHDC2 R56A mutant [1]
  Kd: 329 nM
KLHDC2 R56A mutant [2]
  Kd: 329 nM
